Test results from PubChem BioAssay AID1768 (National Center for Advancing Translational Sciences (NCATS), 2009).
Values joined by “and” are separate entries in the source; they are usually repeats but may differ in a detail not shown here. Equal entries are not always repeated. Hit rate of the full screen: of about 270,000 compounds, about 620 (0.23%) were called active. This list was built around the results that the source calls inconclusive (neither active nor inactive); the mix of calls is not that of the screen. Calls follow the shape of the dose curve; as a rule, active = well fitted inhibition curve with a large enough effect in the polarisation, with a control signal flat (not every such curve was filed as active); inconclusive = small, poorly fitted or top-dose-only effect, or effect the other way, or a change in a side signal; inactive = no such curve, though single readings can be large or run the other way; the % refers to the polarisation. Potencies of inconclusive entries are doubtful fits and often do not repeat. A note “side channel” means that the fit belongs to a control or component signal, not to the main read-out.

The molecules below were run against Menin (Homo sapiens) (UniProt O00255) (assay: qHTS Assay for Inhibitors Targeting the Menin-MLL Interaction in MLL Related Leukemias: Competition With Texas Red Labeled MLL-derived Mutant Peptide). Conditions: fluorescence polarization; FP activity change, negative = inhibition: at 61.6 µM (top of the series).
For FP activity change, negative = inhibition in this document: % of control where 0% means no effect.
Potency is read from the fitted curve at half-maximal effect; tags tell the direction and shape of the fitted curve or compound fluorescence and quenching.

UniProt O00255, sequence (O00255 whole entry, looked up): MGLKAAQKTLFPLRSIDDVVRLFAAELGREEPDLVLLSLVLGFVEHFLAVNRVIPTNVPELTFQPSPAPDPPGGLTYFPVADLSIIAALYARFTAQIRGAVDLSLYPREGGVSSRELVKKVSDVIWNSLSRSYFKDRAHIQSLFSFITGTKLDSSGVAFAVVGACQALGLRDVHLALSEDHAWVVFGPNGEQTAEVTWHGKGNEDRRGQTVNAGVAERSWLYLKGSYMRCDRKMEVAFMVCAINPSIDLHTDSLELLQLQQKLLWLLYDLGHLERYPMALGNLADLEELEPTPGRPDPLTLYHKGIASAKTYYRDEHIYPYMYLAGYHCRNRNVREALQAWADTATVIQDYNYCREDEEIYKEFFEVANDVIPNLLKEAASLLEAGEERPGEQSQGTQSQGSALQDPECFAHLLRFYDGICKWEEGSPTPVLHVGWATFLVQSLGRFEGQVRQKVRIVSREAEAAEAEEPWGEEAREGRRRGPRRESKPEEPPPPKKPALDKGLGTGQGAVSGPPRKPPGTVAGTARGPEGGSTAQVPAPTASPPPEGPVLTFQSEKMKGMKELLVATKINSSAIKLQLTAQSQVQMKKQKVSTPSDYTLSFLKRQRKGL

SMILES | Potency | FP activity change, negative = inhibition
CCn1cc(C(=O)NCCC(C)C)c(=O)c2cc(F)c(N3CCN(C)CC3)cc21 | inconclusive: 17.8 µM [fluorescent, side channel, partial curve] | 
COC(=O)c1ccc(/C=C/c2c(-c3ccsc3)sc3ccccc23)cc1 | inconclusive: 12.6 µM [quencher, side channel, partial curve] | 
CCOc1ccc(-c2cc(N)n(S(=O)(=O)c3ccc(OC)c(OC)c3)n2)cc1 | inconclusive: 14.1 µM [quencher, side channel, partial curve] | 
CCc1ccc(C2NC(=O)c3ccccc3O2)cc1 (stereo unspecified) | inconclusive: 20 µM [inhibitor, single point] | 
O=C(c1cnn2c(C(F)F)cc(-c3ccccc3)nc12)N1CCc2ccccc21 | inconclusive: 2.24 µM [fluorescent, side channel, full curve, poor fit] | 
CN=C(N)NCCC[C@H](N)C(=O)O | inconclusive: 14.1 µM [fluorescent, side channel, partial curve] | 
COc1ccc(C2=Nc3ccc(Br)cc3C(c3ccccc3)N2CC(=O)NN)cc1 (stereo unspecified) |  | inactive: -8.23%
Cc1ccc2c(c1)nnn2C1CCN(C(=O)NC23CC4CC(CC(C4)C2)C3)CC1 | inconclusive: 39.8 µM [inhibitor, single point] | 
CCOC(=O)c1c(NC(=S)Nc2ccccc2)sc2c1CC(C)(C)SC2 | inconclusive: 10 µM [quencher, side channel, partial curve] | 
NS(=O)(=O)c1cccc(NC(=O)CSc2nn(-c3ccccc3)c(=S)s2)c1 | inconclusive: 17.8 µM [quencher, side channel, partial curve] | 
O=c1[nH]c(N/N=C/c2ccc(O)cc2)nc2ccccc12 | inconclusive: 39.8 µM [quencher, side channel, single point] | 
COc1ccc(/C=C(\NC(=O)c2ccc(C)cc2)C(=O)N2CCCCC2)cc1 | inconclusive: 7.94 µM [fluorescent, side channel, partial curve] | 
COc1ccc(CNc2ncc(-c3ccccc3)n2C)c(OC)c1OC | inconclusive: 8.91 µM [inhibitor, partial curve] | 
COc1cccc(/C=N/N2C(=O)CSC2=S)c1O | inconclusive: 39.8 µM [fluorescent, side channel, single point] | 
O=c1n(Cc2ccccc2)c2cc(Cl)cnc2n1Cc1ccccc1 |  | inactive: -5.41%
CCOc1ccc(C(=O)c2cnc3ccccc3c2N2CCN(CC)CC2)cc1 | inconclusive: 10 µM [fluorescent, side channel, partial curve] | 
CN1C(=O)/C(=C2\SC(N)=NC2=O)c2ccccc21 | inconclusive: 25.1 µM [quencher, side channel, single point] | 
CC(C)=CC(=O)Nc1ccccc1Br |  | inactive: -1.11%
COc1ccc2ccccc2c1C1CC(=O)N2CN(C)CSC2=C1C#N (stereo unspecified) | inconclusive: 7.94 µM [quencher, side channel, partial curve] | 

SMILES | Potency | FP activity change, negative = inhibition
O=C(Nc1cccc(Cl)c1)Nc1nc(-c2ccccc2)cs1 | inconclusive: 3.55 µM [quencher, side channel, partial curve] | 
Cc1nccn1CCN(C)Cc1cn(Cc2ccccc2)nc1-c1ccc2c(c1)OCO2 | inconclusive: 39.8 µM [fluorescent, side channel, single point] | 
O=C1NC(Cc2c[nH]c3ccccc23)C(=O)N1Cc1ccc(CN2C(=O)NC(Cc3c[nH]c4ccccc34)C2=O)cc1 (stereo unspecified) | inconclusive: 39.8 µM [inhibitor, single point] | 
Cn1cc(/C=N/n2cnc3scc(-c4ccccc4)c3c2=O)c2ccccc21 | inconclusive: 35.5 µM [inhibitor, partial curve] | 
O=C(/C=C/c1ccco1)NC(=S)Nc1cc(C(F)(F)F)ccc1N1CCOCC1 | inconclusive: 10 µM [quencher, side channel, partial curve, poor fit] | 
C=CCNC(=O)c1cnn(-c2ccccc2)c1-c1ccccc1 | inconclusive: 7.94 µM [inhibitor, full curve] | 
COCCCN1CC(=O)N2C(c3cccc(OC)c3OC)c3[nH]c4ccccc4c3C[C@H]2C1=O (stereo partly specified) | inconclusive: 14.1 µM [fluorescent, side channel, partial curve] | 
CCCCn1c(=O)[nH]c(=O)c2c1nc(-c1cc(Cl)c(OC)c(OC)c1)n2C | inconclusive: 39.8 µM [fluorescent, side channel, single point] | 
CSc1nc(-c2ccc(Cl)cc2)nn1S(=O)(=O)c1ccc(Cl)cc1 |  | inactive: 9.6%
CC1CCN(C2=NC(=O)/C(=C/c3ccccc3F)S2)CC1 | inconclusive: 17.8 µM [inhibitor, partial curve] | 
Clc1ccc(CSc2nnc([C@@H]3CCCN3)o2)cc1Cl |  | inactive: 1.78%
CC1Cc2c([nH]c3ccccc23)C(=O)N1 (stereo unspecified) | inconclusive: 12.6 µM [inhibitor, partial curve] | 
O=c1cc(O)c2sc(Nc3ccc(F)cc3)nc2[nH]1 | inconclusive: 10 µM [quencher, side channel, partial curve] | 
CN(C)S(=O)(=O)c1cc(NC(=O)COC(=O)Cc2ccc(Br)cc2)ccc1Cl | inconclusive: 12.6 µM [quencher, side channel, partial curve] | 
Cc1ccc(C(=O)Nc2ccc3c(c2)nc(CCNC(=O)c2ccco2)n3C)cc1 | inconclusive: 39.8 µM [inhibitor, single point] | 
CC1Cc2ccccc2N1CC(=O)c1c(N)n(Cc2ccccc2)c(=O)n(C)c1=O (stereo unspecified) | inconclusive: 28.2 µM [quencher, side channel, single point] | 
COc1cc2oc3cc(C)oc(=O)c3c2cc1OC | inconclusive: 10 µM [inhibitor, full curve, poor fit] | 
COc1cccc2c1OCC(C(=O)Nc1nccs1)=C2 | inconclusive: 15.8 µM [quencher, partial curve] | 
CC(C)(C)c1ccc(-c2cn(-c3ccc(Br)cc3)c3[n+]2CCCS3)cc1 | inconclusive: 10 µM [inhibitor, partial curve] | 

SMILES | Potency | FP activity change, negative = inhibition
COc1ccc(-c2ccc(-c3nnn(CC(=O)N4CCOCC4)n3)cc2)cc1 |  | inactive: -15.6%
CCn1c(C)cc(=S)c2ccccc21 | inconclusive: 28.2 µM [fluorescent, side channel, partial curve] | 
CCNC(=S)N/N=C/c1ccc(OCCOc2ccccc2C)cc1 | inconclusive: 39.8 µM [inhibitor, single point] | 
Cc1cc(=O)c2c(O)c3c(O)cc(=O)c4c3c3c(cc(O)c1c23)C(C)(C)C=4O | inconclusive: 14.1 µM [fluorescent, side channel, full curve] and inconclusive: 11.2 µM [fluorescent, side channel, partial curve] | 
Cc1noc(/C=C/N(C)C)c1S(=O)(=O)N1CCCC(C(=O)NCc2cccs2)C1 (stereo unspecified) | inconclusive: 28.2 µM [fluorescent, side channel, partial curve] | 
Cc1sc(N/N=C/c2cccnc2)nc1-c1ccccc1 | inconclusive: 31.6 µM [quencher, side channel, partial curve] | 
O=c1oc2cc(O)ccc2cc1-c1ccc2c(c1)OCCO2 | inconclusive: 1.78 µM [quencher, side channel, partial curve, poor fit] | 
CCOc1ccc(C(=O)Nc2cccc(NC(=O)c3cccs3)c2)cc1[N+](=O)[O-] | inconclusive: 12.6 µM [quencher, side channel, partial curve] | 
COc1ccc(-c2nnc(SCC(=O)N3CCc4ccccc4C3)o2)cc1 | inconclusive: 35.5 µM [fluorescent, side channel, single point] | 
Cc1cc(C)c2nc(-c3ccccn3)cc(C(=O)NCCc3ccc(S(N)(=O)=O)cc3)c2c1 | inconclusive: 39.8 µM [fluorescent, side channel, single point] | 
CC12CCC=CC1C(c1ccc3ccccc3c1)N(Cc1ccccc1)C2=O (stereo unspecified) | inconclusive: 2.82 µM [fluorescent, side channel, full curve, poor fit] | 
CCOC(=O)C1=C(C)c2ccccc2N(C(=O)OC)C1(C)C(=O)OCC (stereo unspecified) |  | inactive: -3.6% [at 94.6 µM]
CCOC(=O)N1CCN(S(=O)(=O)c2ccc(C(=O)NNc3nc4c(C)cccc4s3)cc2)CC1 | inconclusive: 15.8 µM [quencher, side channel, single point] | 
COc1cccc(CC(=O)Nc2nc3ccccc3[nH]2)c1 | inconclusive: 25.1 µM [fluorescent, side channel, partial curve] | 
CCCC(=O)NC(c1ccco1)c1cc([N+](=O)[O-])c2cccnc2c1O (stereo unspecified) | inconclusive: 14.1 µM [quencher, side channel, partial curve] | 
CCOc1ccc2nc(NS(=O)(=O)c3ccc4c(c3)n(C)c(=O)n4C)sc2c1 | inconclusive: 15.8 µM [quencher, side channel, partial curve] | 
O=C(NCc1ccc(F)cc1)C1CCC(CNS(=O)(=O)c2ccccc2)CC1 (stereo unspecified) | inconclusive: 39.8 µM [fluorescent, side channel, single point] | 
N#C/C(=C/c1ccc(-c2ccccc2)o1)c1nc(-c2cccs2)cs1 | inconclusive: 2.24 µM [quencher, side channel, full curve] | 
